B1: ENSG00000198589:be:win_1751|CDS|ENSG00000198589|bound_else_gene|NA|bound_elsewhere_windowed (ssRNA)
RNA: GGGAGUUCUACAGUCCGACGAUCCCAAGGUUCAACUGAUGCUCUAUACUUAUCUGUCCACGGAAUUCAUUGGUACAGUCAACAUAUAUAACACCAUUCGGAGAGUUGGAACAGUGCUUCUCAUCAUGCACACGCUGAAGUACUCAACAGAGGAUUGAGCAUCA
B2: chr20:56370492:56370607:-|CDS|ENSG00000087586|unk|total|mutant (ssRNA)
RNA: GGGAGUUCUACAGUCCGACGAUCUCGGAUGCAUGAUGAGAAGGUGGAUCUCUGGAGCCUUGGAGUUCUUUGCUAUGAAUUUUCCGUUGGGAAGCCUCCUUUUGAGGCAAACACAUACCAAGAGACCUACAAAAGAAUAUCACGCAACAGAGGAUUGAGCAUCA
B3: chr1:92387783:92387894:+|3pUTR|ENSG00000122484|unk|total|mutant (ssRNA)
RNA: GGGAGUUCUACAGUCCGACGAUCGGGAGCUCCGUGGGCAAGGAGGCCGGGAUAUAAUUUCUCUUCUUGGCUCCACCAGUAAUCCGCUCUGUGGCCCAGUCACCUAAACUUUCUGGACUUCAGUUCAGGUUGUAUGGCAGCCGGCAACAGAGGAUUGAGCAUCA
B4: chr21:30561100:30561289:-|CDS|ENSG00000244362|control|control|control (ssRNA)
RNA: GGGAGUUCUACAGUCCGACGAUCAGCUACUAUGGAGGCCUAGGCUACGGCUGUGGAGGAUUCGGUGGCCUGGGCUAUGGCUAUAGCUGUGGAUGUGGCAGCUUCCGCAGACUGGGCUAUGGCUGUGGCUAUGGAGGCUACAGACAACAGAGGAUUGAGCAUCA
B5: chr12:104760787:104760888:+|3pUTR|ENSG00000171310|unk|total|mutant (ssRNA)
RNA: GGGAGUUCUACAGUCCGACGAUCUUCUUUUCUAAUGGCAUUGAAACUUUAAAAAAAAUGGAUUCAACUGUUUUUGCAGAAUGCCGAAAGUAUUCUGUGUCCUUGGUUAAAGAAAUCCACUUGUGAAGUGUGCCUGGAAAAUGACAACAGAGGAUUGAGCAUCA
B6: chr4:75812186:75812332:+|CDS|ENSG00000138768|unk|total|mutant (ssRNA)
RNA: GGGAGUUCUACAGUCCGACGAUCAGAGCAGCUGGAUUCAUCUAACCGUACCAUUGCCAUUUUACAAACUGAGAAAGACAAACCCGAGUUGGAAAUUACAGAUUCUAAAAAAGAACAAGAUGAUCUCUUGGUGCUCUUGGCCGACAACAGAGGAUUGAGCAUCA
B7: chr6:42978268:42979150:-|CDS|ENSG00000124587|control|control|control (ssRNA)
RNA: GGGAGUUCUACAGUCCGACGAUCACUUCACAGCCGCACUUGGCUAGGGUGCAGGUCCUAGAACCUCGCUGGGACCUCUCUGAUAGACUGGGACCCGGCUCUGGACCGCUGGGAGAGCCCCUCGCUGACGGACUGGCGCUUGUCCAACAGAGGAUUGAGCAUCA
B8: chr20:7982266:7982367:-|CDS|ENSG00000125827|msi1|total|mutant (ssRNA)
RNA: GGGAGUUCUACAGUCCGACGAUCGAGAAGUGAGGCCAAUGAUCAGGGGCCCCCAGGAGAGGACGGUGUGACCCGGGAGGAAGCCGAGCCUGAGGAGGCUGAAGAAGGCAUCUCUGAGCAACCCUGCCCAGCUGACACAGAGGUCAACAGAGGAUUGAGCAUCA
B9: ENSG00000070961:be:win_601|CDS|ENSG00000070961|bound_else_gene|NA|bound_elsewhere_windowed (ssRNA)
RNA: GGGAGUUCUACAGUCCGACGAUCCAGGUCAUUCAGAUACCUGUAGCUGACAUUACUGUUGGAGAUAUUGCUCAAGUGAAAUAUGGUGAUCUUCUUCCAGCUGACGGCAUACUUAUUCAAGGCAACGAUCUUAAAAUUGAUGAACAACAGAGGAUUGAGCAUCA
B10: chr17:41691520:41691533:+|3pUTR|ENSG00000173812|msi1_unk|FALSE|overlapping (ssRNA)
RNA: GGGAGUUCUACAGUCCGACGAUCGGAACAAAUCUCAAACUGAUCCAUCAGUCAUGUAGCUAGCUGUAGAGCUUGCAACUUAAUAGCAGCAGCUGCCCAAUGCCAUGUGAAGUAACAAACUGGUUUUUGGUUUUUUUUUCCCCUCAACAGAGGAUUGAGCAUCA
B11: chr22:41177882:41177989:+|CDS|ENSG00000100393|unk|FALSE|unique (ssRNA)
RNA: GGGAGUUCUACAGUCCGACGAUCCAAAACCUUUUGCGGACUCUCAGGUCUCCCAGCUCUCCCCUGCAGCAGCAACAGGUGCUUAGUAUCCUUCACGCCAACCCCCAGCUGUUGGCUGCAUUCAUCAAGCAGCGGGCUGCCAAGCAACAGAGGAUUGAGCAUCA
B12: chr11:35229396:35229958:+|3pUTR|ENSG00000026508|msi1|total|mutant (ssRNA)
RNA: GGGAGUUCUACAGUCCGACGAUCAUAUGUAUUCCUGAUCGCCAACCUUUCCCCCACCAGCUAAGGACAUUUCCCAGGGUUAACCGGGCCUGGUCCCUGGGAGGAAAUUUGAAUGGGUCCAUUUUGCCCUUCCACCGCCUAAUCCAACAGAGGAUUGAGCAUCA
B13: chr11:102693905:102694065:-|CDS|ENSG00000137675|control|control|control (ssRNA)
RNA: GGGAGUUCUACAGUCCGACGAUCCUUGCCAGAUUAUCCCAAAUCCAUCCAUACAUUAGGUUUUCCAGGACGUGUGAAGAAAAUAGAUGCAGCCGUCUGUGAUAAGACCACAAGAAAAACCUACUUCUUUGUGGGCAUUUGGUGCAACAGAGGAUUGAGCAUCA
B14: ENSG00000124766:be:win_2101|3pUTR|ENSG00000124766|bound_else_gene|NA|bound_elsewhere_windowed (ssRNA)
RNA: GGGAGUUCUACAGUCCGACGAUCUGCCCCCUCUGCAGCCGGAGGAGGAGAUGUUGAGGGGAGGAGGCCAGCCAGUGUGACCGGCGCUAGGAAAUGACCCGAGAACCCCGUUGGAAGCGCAGCAGCGGGAGCUAGGGGCGGGGGCAACAGAGGAUUGAGCAUCA

We go through 14 molecules from publication PMC12136788.

The other results are listed elsewhere or left out.

This test addresses T1, UNK ZnF1-6 (called full-length) (human, UniProt Q9C0B0 30-357).
T1 sequence: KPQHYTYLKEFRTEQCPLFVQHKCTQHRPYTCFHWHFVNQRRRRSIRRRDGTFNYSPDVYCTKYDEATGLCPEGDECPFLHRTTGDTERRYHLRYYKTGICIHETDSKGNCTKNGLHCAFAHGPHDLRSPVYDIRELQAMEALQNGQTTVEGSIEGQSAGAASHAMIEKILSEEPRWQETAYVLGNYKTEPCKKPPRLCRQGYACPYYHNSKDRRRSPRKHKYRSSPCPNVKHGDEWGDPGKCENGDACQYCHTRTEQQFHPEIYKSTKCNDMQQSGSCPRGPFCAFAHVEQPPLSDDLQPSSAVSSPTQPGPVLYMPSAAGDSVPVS
Briefly: nsRBNS (natural sequence RNA bind-n-seq); RBNS binding buffer (assumed for nsRBNS): 25 mM Tris pH 7.5, 150 mM KCl, 3 mM MgCl2, 0.01% Triton X-100, 500 ug/ml BSA, 20 U/ml SUPERase-In, 4 C; UNK is unkempt and MSI1 is Musashi-1; names of the RNAs are library labels; protein concentration not given here; high values mean tight binding.
In the case of B1, the binding signal was found to be 0.372 enrichment R.

In the case of B2, the binding signal was found to be 0.443 enrichment R.

For B3, the binding signal was 0.715 enrichment R.

For the molecule B4, the binding signal was 0.816 enrichment R.

Regarding B5, the binding signal stood at 0.346 enrichment R.

On to B6, for which the binding signal is 0.434 enrichment R.

In turn, B7 yielded a binding signal of 0.699 enrichment R.

In turn, B8 yielded a binding signal of 0.95 enrichment R.

Consider B9, for which the binding signal turned out to be 0.248 enrichment R.

B10 came in with a binding signal of 0.632 enrichment R.

As to B11, the binding signal is 0.945 enrichment R.

Regarding B12, the binding signal was 0.541 enrichment R.

For the molecule B13, the binding signal came to 0.534 enrichment R.

B14 gave a binding signal of 1.41 enrichment R.
